From the supplement of paper PMC7335073
Over roughly 4,100 sequences, “relative CpG methylation activity (normalised to average over all NNNCGNNN flanks)” has its median near 0.94; the highest 2% begin near 1.9. Some of the results follow.

target: DNMT3B catalytic domain (mouse) (UniProt O88509); experiment: relative CpG methylation activity (normalised to average over all NNNCGNNN flanks) (relative (1 = mean)); higher = more methylation of the central CpG; conditions: system: in vitro, murine catalytic domain; CpG state: hemimethylated substrate pool; residues: 558-859
UniProt O88509, sequence (O88509 558-859): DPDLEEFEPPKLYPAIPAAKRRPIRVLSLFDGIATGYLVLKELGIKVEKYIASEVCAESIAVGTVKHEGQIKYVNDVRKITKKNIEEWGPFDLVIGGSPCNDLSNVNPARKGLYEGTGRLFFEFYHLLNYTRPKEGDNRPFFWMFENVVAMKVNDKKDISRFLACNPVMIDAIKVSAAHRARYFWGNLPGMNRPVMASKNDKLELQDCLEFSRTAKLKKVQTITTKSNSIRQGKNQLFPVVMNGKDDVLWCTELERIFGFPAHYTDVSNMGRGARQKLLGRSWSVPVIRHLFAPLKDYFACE
Protocol: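 Deep enzymology: a pool of dsDNA substrates with a central CpG flanked by 10 random nucleotides on each side was methylated by the murine DNMT3A or DNMT3B catalytic domain (0.8 mM SAM, 37 °C, 60 min). Methylation was then read out by hairpin ligation, bisulfite conversion and NGS. Values are the average methylation of each NNNCGNNN context (±3 flanks; the outer flanks are random and averaged over), normalised to the overall mean, so 1 = average activity.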

| Sequence | relative CpG methylation activity |
| --- | --- |
| CGTCGCAG | 0.295 |
| CCCCGACC | 1.46 |
| TCCCGGAT | 0.938 |
| ACACGCCA | 1.38 |
| GTGCGTTC | 1.33 |
| GTTCGCCA | 0.862 |
| GCCCGCAA | 0.477 |
| GTTCGCTG | 0.827 |
| GGACGCTC | 1.29 |
| CCGCGACG | 0.924 |
| CATCGCCT | 1.01 |
| TGGCGAGC | 1.13 |
| CTTCGAGT | 1.28 |
| TGACGTAG | 0.75 |
| GCTCGCCG | 0.812 |
| ATGCGATT | 1.22 |
| GACCGATG | 0.987 |
| GTGCGTTA | 0.511 |
| GGTCGAGG | 0.969 |
| CTGCGCAA | 0.612 |
| CCACGTTT | 0.776 |
| GTCCGAGT | 1.37 |

| Sequence | relative CpG methylation activity |
| --- | --- |
| TAACGCCA | 1.46 |
| AAGCGTGC | 0.448 |
| AATCGCTT | 0.892 |
| TTTCGCGT | 1.32 |
| CGACGCAC | 0.749 |
| ATCCGCGA | 0.41 |
| GGACGGGT | 1.07 |
| GCACGACT | 1.07 |
| AGTCGACA | 1.24 |
| CCTCGAAA | 1.47 |
| CGACGTGC | 0.674 |
| GCCCGTTT | 0.456 |
| TAACGCGG | 1.19 |
| CGTCGATC | 1.7 |
| TGTCGCTG | 0.877 |
| TTTCGGTA | 1.42 |
| GTGCGAGC | 1.52 |
| GCTCGTAT | 0.509 |
| TCACGTAC | 1.23 |
| GCTCGCTA | 0.724 |
| AGGCGTAC | 0.539 |
| ACCCGAAT | 1.08 |

| Sequence | relative CpG methylation activity |
| --- | --- |
| GTACGGCC | 1.9 |
| ATCCGCAC | 0.969 |
| AGACGCAT | 0.54 |
| CGGCGGCC | 1.11 |
| AATCGGCT | 1.84 |
| GTACGTCA | 1.19 |
| CAACGCTC | 1.57 |
| ATTCGCGT | 0.583 |
| CTGCGAGT | 0.957 |
| AGTCGTAG | 0.146 |
| AGGCGAAG | 0.363 |
| CAGCGCGT | 0.413 |
| GCGCGGGA | 0.853 |
| CTACGACG | 1.81 |
| ATCCGTGG | 0.29 |
| AGGCGACA | 0.553 |
| GACCGATT | 1.22 |
| TTGCGCCC | 1.54 |
| TACCGCAT | 0.389 |
| CGACGGTT | 0.817 |
| AGTCGTGC | 0.61 |
| GGCCGTAC | 0.571 |

| Sequence | relative CpG methylation activity |
| --- | --- |
| ACCCGAAA | 1.46 |
| TACCGTTG | 0.259 |
| CGTCGCAT | 0.29 |
| GATCGAAC | 1.16 |
| TAGCGTCC | 0.858 |
| CTCCGCTG | 0.983 |
| GATCGGTA | 0.838 |
| CGTCGCTT | 0.865 |
| CGCCGATC | 1.4 |
| GGACGTGG | 0.332 |
| GACCGCAA | 0.281 |
| AGCCGAAC | 0.991 |
| TCGCGTGG | 0.463 |
| CGTCGAAG | 0.894 |
| TCCCGAAG | 1.34 |
| GAACGGGA | 1.45 |
| TCCCGGCC | 1.6 |
| GGTCGCAC | 0.424 |
| CCACGGAA | 1.15 |
| TATCGTCC | 1.22 |
| CTTCGGTA | 1.51 |
| TCGCGCGG | 0.653 |

| Sequence | relative CpG methylation activity |
| --- | --- |
| CTTCGCTA | 1.18 |
| TAGCGGAG | 0.361 |
| AGGCGTGC | 0.175 |
| ACCCGTTT | 0.295 |
| CGGCGTGC | 0.326 |
| TGCCGATA | 1.1 |
| AAGCGGCG | 1.07 |
| CGACGAGA | 1.66 |
| TCACGAAC | 1.67 |
| TGACGTTA | 0.471 |
| TTGCGATG | 1.14 |
| GCGCGACG | 0.694 |
| CTCCGCGA | 0.802 |
| TCGCGGGA | 0.949 |
| CATCGTAT | 0.559 |
| AAACGTGG | 0.407 |
| CTTCGATG | 1.33 |
| ACACGCAG | 0.625 |
| CGGCGTAA | 0.402 |
| TTCCGCGT | 0.841 |
| TGTCGTAT | 0.243 |
